Experimental data taken from a collection of fitness landscapes (doi:10.1016/j.celrep.2020.107928).
In all, about 81,000 sequences were measured (“one-hybrid fitness for binding parS DNA”: median about -0.17, highest 2% from about 0.51 on). Some of the results follow.

B1: Caulobacter ParB omega fusion; a variant is named by its letters at X, in order, B8GW30 (parent)
chain: MESVVVGEPGMSEGRRGLGRGLSALLGEVDAAPAQAPGEQLGGSREAPIEILQRNPDQPRRTFREEDLEDLSNSIREKGVLQPILVRPSPDTAGEYQIVAGERAWRAAQRAGLKTVPIMVRELDDLAVLEIGIIENVQRADLNVLEEALSYKVLMEKFERTQENIAQTIGKSXSHVANXMRLLXLPDEVQSYLVSGELTAXHARAIAAAADPVALAKQIIEGGLSVRETEALARKAPNLSAGKSKGGRPPRVKDTDTQALESDLSSVLGLDVSIDHRGSTGTLTITYATLEQLDDLCNRLTRGI

Variants of: B1
Experiment: one-hybrid fitness for binding parS DNA (scaled: cognate 1, non-cognate 0); higher = stronger binding
Details: with parS DNA site
Procedure, shortened: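 Values were rescaled so that cognate is 1 and non-cognate is 0. Each is a fitness, the log change in a variant's read ratio to wild type from Illumina reads of plasmids before and after selection, with three replicate libraries pooled and variants under 10 reads dropped. Selection of the Caulobacter ParB libraries, four specificity codons randomised, used E. coli USO with a HIS3 reporter, site 19 bp from the promoter, on M9-minus-histidine with 0.1 mM IPTG and 5 mM 3-AT for 48 hours at 37°C.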

Row | Variant | one-hybrid fitness for binding parS DNA
1 | GGYY | ≤ 0.2
2 | QNHY | ≤ 0.2
3 | DPSN | ≤ 0.2
4 | KDTK | ≤ 0.2
5 | QKVY | ≤ 0.2
6 | QSLR | ≤ 0.2
7 | RICF | 0.282
8 | YTVG | ≤ 0.2
9 | AREQ | ≤ 0.2
10 | SSCS | ≤ 0.2
11 | EDQD | ≤ 0.2
12 | LITC | ≤ 0.2
13 | KNNS | ≤ 0.2
14 | HTLS | ≤ 0.2
15 | KKWR | ≤ 0.2
16 | ALAV | ≤ 0.2
17 | QRIN | ≤ 0.2
18 | NYQT | ≤ 0.2
19 | MPHS | ≤ 0.2
20 | PQNY | ≤ 0.2
21 | ILKS | ≤ 0.2
22 | GTSV | ≤ 0.2
23 | DMFV | ≤ 0.2
24 | MSVI | ≤ 0.2

Row | Variant | one-hybrid fitness for binding parS DNA
25 | YCYT | ≤ 0.2
26 | DIPR | ≤ 0.2
27 | TCFF | ≤ 0.2
28 | EASG | ≤ 0.2
29 | APTI | ≤ 0.2
30 | RFRR | ≤ 0.2
31 | LLYA | ≤ 0.2
32 | YSWS | ≤ 0.2
33 | FWKG | ≤ 0.2
34 | QNYR | ≤ 0.2
35 | SSEG | ≤ 0.2
36 | KDSG | ≤ 0.2
37 | CVIG | ≤ 0.2
38 | VKSK | ≤ 0.2
39 | KHSN | ≤ 0.2
40 | PRWG | ≤ 0.2
41 | LYAI | ≤ 0.2
42 | RPNI | ≤ 0.2
43 | WWDS | ≤ 0.2
44 | YSCG | ≤ 0.2
45 | AFAR | ≤ 0.2
46 | RTYL | ≤ 0.2
47 | FWLC | ≤ 0.2
48 | LCQR | ≤ 0.2

Row | Variant | one-hybrid fitness for binding parS DNA
49 | KENE | ≤ 0.2
50 | QLIM | ≤ 0.2
51 | LLHD | ≤ 0.2
52 | AASI | ≤ 0.2
53 | LNHF | ≤ 0.2
54 | QAEC | ≤ 0.2
55 | WHQI | ≤ 0.2
56 | WDIS | ≤ 0.2
57 | TATR | ≤ 0.2
58 | PEEA | ≤ 0.2
59 | HSGE | ≤ 0.2
60 | RCMG | 1.03
61 | PPWK | ≤ 0.2
62 | HFRC | ≤ 0.2
63 | STTC | ≤ 0.2
64 | VAYN | ≤ 0.2
65 | PAMT | ≤ 0.2
66 | QPQM | ≤ 0.2
67 | MYRG | ≤ 0.2
68 | YDME | ≤ 0.2
69 | GWVW | ≤ 0.2
70 | HLKF | ≤ 0.2
71 | IWWV | ≤ 0.2
72 | TMKY | ≤ 0.2

Row | Variant | one-hybrid fitness for binding parS DNA
73 | QNSG | ≤ 0.2
74 | KEDT | ≤ 0.2
75 | PLKN | ≤ 0.2
76 | RSMY | 0.434
77 | KSAG | ≤ 0.2
78 | KSAC | ≤ 0.2
79 | QRSH | ≤ 0.2
80 | VWGA | ≤ 0.2
81 | DLGT | ≤ 0.2
82 | RPYT | ≤ 0.2
83 | PPKS | ≤ 0.2
84 | SDML | ≤ 0.2
85 | NCYR | ≤ 0.2
86 | RASI | ≤ 0.2
87 | IAMG | ≤ 0.2
88 | VRNE | ≤ 0.2
89 | LEMT | ≤ 0.2
90 | SHEY | ≤ 0.2
91 | WYTV | ≤ 0.2
92 | ACTA | ≤ 0.2
93 | QTSL | ≤ 0.2
94 | RHGK | ≤ 0.2
95 | QMYC | ≤ 0.2
96 | PWEG | ≤ 0.2

Row | Variant | one-hybrid fitness for binding parS DNA
97 | ERFN | ≤ 0.2
98 | SSMK | ≤ 0.2
99 | HYAF | ≤ 0.2
100 | SDTA | ≤ 0.2
101 | TQVL | ≤ 0.2
102 | ALYA | ≤ 0.2
103 | STDT | ≤ 0.2
104 | RVPY | ≤ 0.2
105 | KAHS | ≤ 0.2
106 | YHIG | ≤ 0.2
107 | WTGV | ≤ 0.2
108 | NTFG | ≤ 0.2
109 | IGMG | ≤ 0.2
110 | DAVE | ≤ 0.2
111 | TPGG | ≤ 0.2
112 | GMLY | ≤ 0.2
113 | QVFN | ≤ 0.2
114 | KLCY | ≤ 0.2
115 | QYTP | ≤ 0.2
116 | SHMA | ≤ 0.2
117 | DRIL | ≤ 0.2
118 | ETAC | ≤ 0.2
119 | PYDT | ≤ 0.2
120 | GSAV | ≤ 0.2

Row | Variant | one-hybrid fitness for binding parS DNA
121 | PDTV | ≤ 0.2
122 | TQKM | ≤ 0.2
123 | LRGT | ≤ 0.2
124 | KDIE | ≤ 0.2
125 | PKAI | ≤ 0.2
126 | YSSN | ≤ 0.2
127 | CNAL | ≤ 0.2
128 | AAVL | ≤ 0.2
129 | IAHR | ≤ 0.2
130 | TPAN | ≤ 0.2
131 | MGQR | ≤ 0.2
132 | TDSP | ≤ 0.2
133 | NMMG | ≤ 0.2
134 | TNQI | ≤ 0.2
135 | ASHM | ≤ 0.2
136 | PLGL | ≤ 0.2
137 | QSMF | ≤ 0.2
138 | VSHC | ≤ 0.2
139 | YKDY | ≤ 0.2
140 | DRCA | ≤ 0.2
141 | CSMF | ≤ 0.2
142 | KAHL | ≤ 0.2
143 | RWLA | 0.384
144 | VGCD | ≤ 0.2

Row | Variant | one-hybrid fitness for binding parS DNA
145 | RIFD | ≤ 0.2
146 | SCYC | ≤ 0.2
147 | QQAN | ≤ 0.2
148 | DFMS | ≤ 0.2
149 | CIQR | ≤ 0.2
150 | FKRH | ≤ 0.2
151 | LCSV | ≤ 0.2
152 | ELYN | ≤ 0.2
153 | DGHS | ≤ 0.2
154 | RNLH | ≤ 0.2
155 | HKHR | ≤ 0.2
156 | WRQY | ≤ 0.2
157 | PQPQ | ≤ 0.2
158 | YNID | ≤ 0.2
159 | YPDS | ≤ 0.2
160 | CNNT | ≤ 0.2
161 | PFSY | ≤ 0.2
162 | TKGG | ≤ 0.2
163 | FITG | ≤ 0.2
164 | TNGI | ≤ 0.2
165 | IQSC | ≤ 0.2
166 | NVAR | ≤ 0.2
167 | SATP | ≤ 0.2
168 | RYPC | 0.477

Row | Variant | one-hybrid fitness for binding parS DNA
169 | DCNA | ≤ 0.2
170 | INAT | ≤ 0.2
171 | WICR | ≤ 0.2
172 | FLPV | ≤ 0.2
173 | FWNS | ≤ 0.2
174 | VDQS | ≤ 0.2
175 | PKVC | ≤ 0.2
176 | RKLR | ≤ 0.2
177 | QPTQ | ≤ 0.2
178 | CQAF | ≤ 0.2
179 | TYWR | ≤ 0.2
180 | TGEL | ≤ 0.2
181 | RNVT | 0.514
182 | QNKC | ≤ 0.2
183 | IERT | ≤ 0.2
184 | ESRI | ≤ 0.2
185 | RMCF | 0.217
186 | TMYC | ≤ 0.2
187 | ETVG | ≤ 0.2
188 | TPGI | ≤ 0.2
189 | IKTH | ≤ 0.2
190 | CAPF | ≤ 0.2
191 | QYTH | ≤ 0.2
192 | AHHR | ≤ 0.2

Row | Variant | one-hybrid fitness for binding parS DNA
193 | WHVR | ≤ 0.2
194 | GFVI | ≤ 0.2
195 | EARG | ≤ 0.2
196 | NVRG | ≤ 0.2
197 | QIHE | ≤ 0.2
198 | YQDA | ≤ 0.2
199 | GNDP | ≤ 0.2
200 | NSPR | ≤ 0.2
201 | PSID | ≤ 0.2
202 | VLIM | ≤ 0.2
203 | CQRG | ≤ 0.2
204 | LEDE | ≤ 0.2
205 | RRSG | 0.711
206 | SGMT | ≤ 0.2
207 | IHSS | ≤ 0.2
208 | YVWG | ≤ 0.2
209 | MWPG | ≤ 0.2
210 | GLRQ | ≤ 0.2
211 | MFDN | ≤ 0.2
212 | QPHH | ≤ 0.2
213 | PSSH | ≤ 0.2
214 | QSAR | ≤ 0.2
215 | ANSM | ≤ 0.2
216 | VNVL | ≤ 0.2

Row | Variant | one-hybrid fitness for binding parS DNA
217 | HDRK | ≤ 0.2
218 | LTSK | ≤ 0.2
219 | WIAV | ≤ 0.2
220 | TETP | ≤ 0.2
221 | LQGR | ≤ 0.2
222 | GPFG | ≤ 0.2
223 | CCQT | ≤ 0.2
224 | TYIN | ≤ 0.2
225 | DYTT | ≤ 0.2
226 | PWAE | ≤ 0.2
227 | ERYA | ≤ 0.2
228 | RAFS | 1.02
229 | HYKV | ≤ 0.2
230 | LYFV | ≤ 0.2
231 | QVPA | ≤ 0.2
232 | QKIV | ≤ 0.2
233 | WLRP | ≤ 0.2
234 | TCHW | ≤ 0.2
235 | AVVT | ≤ 0.2
236 | CMDS | ≤ 0.2
237 | SWLE | ≤ 0.2
238 | QSAS | ≤ 0.2
239 | SKHE | ≤ 0.2
240 | YQTL | ≤ 0.2

Row | Variant | one-hybrid fitness for binding parS DNA
241 | WYDS | ≤ 0.2
242 | CMHR | ≤ 0.2
243 | LPLC | ≤ 0.2
244 | ETGT | ≤ 0.2
245 | VFMR | ≤ 0.2
246 | VWLR | ≤ 0.2
247 | ANIT | ≤ 0.2
248 | ASHF | ≤ 0.2
249 | GITV | ≤ 0.2
250 | CAVI | ≤ 0.2
251 | IAYC | ≤ 0.2
252 | QYQI | ≤ 0.2
253 | VLRV | ≤ 0.2
254 | SDLT | ≤ 0.2
255 | VGAE | ≤ 0.2
256 | PLPK | ≤ 0.2
257 | QIHV | ≤ 0.2
258 | KAFR | ≤ 0.2
259 | PMPQ | ≤ 0.2
260 | HVEG | ≤ 0.2
261 | VCTS | ≤ 0.2
262 | SDTD | ≤ 0.2
263 | TVHQ | ≤ 0.2
264 | PPDA | ≤ 0.2

Row | Variant | one-hybrid fitness for binding parS DNA
265 | LDMD | ≤ 0.2
266 | SHRH | ≤ 0.2
267 | LRLV | ≤ 0.2
268 | PAIY | ≤ 0.2
269 | SCEV | ≤ 0.2
270 | IWEL | ≤ 0.2
271 | QHYA | ≤ 0.2
272 | CTRW | ≤ 0.2
273 | PTHR | ≤ 0.2
274 | LALL | ≤ 0.2
275 | GRET | ≤ 0.2
276 | NPNY | ≤ 0.2
277 | EQRL | ≤ 0.2
278 | WIER | ≤ 0.2
279 | GHEG | ≤ 0.2
280 | PYTE | ≤ 0.2
281 | LKTS | ≤ 0.2
282 | VSWE | ≤ 0.2
283 | YEGG | ≤ 0.2
284 | HTIL | ≤ 0.2
285 | ATRM | ≤ 0.2
286 | LGVV | ≤ 0.2
287 | ALCW | ≤ 0.2
288 | PVSH | ≤ 0.2

Row | Variant | one-hybrid fitness for binding parS DNA
289 | HLVT | ≤ 0.2
290 | IEDS | ≤ 0.2
291 | LMDW | ≤ 0.2
292 | CLQI | ≤ 0.2
293 | VHNC | ≤ 0.2
294 | GVMA | ≤ 0.2
295 | LCTY | ≤ 0.2
296 | KRAI | ≤ 0.2
297 | QINT | ≤ 0.2
298 | QRLK | ≤ 0.2
299 | LQYH | ≤ 0.2
300 | CTCS | ≤ 0.2
301 | HRMN | ≤ 0.2
302 | KDYF | ≤ 0.2
303 | PCDT | ≤ 0.2
304 | AYES | ≤ 0.2
305 | YQND | ≤ 0.2
306 | SKFM | ≤ 0.2
